Measurements taken from article PMC4336329 (PLoS ONE, 2015).
In all, about 310,000 compounds went through this assay and about 2,200 (0.71%) showed an effect of 50% or more. Effects have a minus sign here. Some of the results follow.

The molecules below were run against human ether-à-go-go-related gene (hERG) potassium channel (human, UniProt Q12809) (assay: primary screen, population patch clamp on CHO cells stably expressing hERG).
Chain of human ether-à-go-go-related gene (hERG) potassium channel (Q12809 whole entry, looked up): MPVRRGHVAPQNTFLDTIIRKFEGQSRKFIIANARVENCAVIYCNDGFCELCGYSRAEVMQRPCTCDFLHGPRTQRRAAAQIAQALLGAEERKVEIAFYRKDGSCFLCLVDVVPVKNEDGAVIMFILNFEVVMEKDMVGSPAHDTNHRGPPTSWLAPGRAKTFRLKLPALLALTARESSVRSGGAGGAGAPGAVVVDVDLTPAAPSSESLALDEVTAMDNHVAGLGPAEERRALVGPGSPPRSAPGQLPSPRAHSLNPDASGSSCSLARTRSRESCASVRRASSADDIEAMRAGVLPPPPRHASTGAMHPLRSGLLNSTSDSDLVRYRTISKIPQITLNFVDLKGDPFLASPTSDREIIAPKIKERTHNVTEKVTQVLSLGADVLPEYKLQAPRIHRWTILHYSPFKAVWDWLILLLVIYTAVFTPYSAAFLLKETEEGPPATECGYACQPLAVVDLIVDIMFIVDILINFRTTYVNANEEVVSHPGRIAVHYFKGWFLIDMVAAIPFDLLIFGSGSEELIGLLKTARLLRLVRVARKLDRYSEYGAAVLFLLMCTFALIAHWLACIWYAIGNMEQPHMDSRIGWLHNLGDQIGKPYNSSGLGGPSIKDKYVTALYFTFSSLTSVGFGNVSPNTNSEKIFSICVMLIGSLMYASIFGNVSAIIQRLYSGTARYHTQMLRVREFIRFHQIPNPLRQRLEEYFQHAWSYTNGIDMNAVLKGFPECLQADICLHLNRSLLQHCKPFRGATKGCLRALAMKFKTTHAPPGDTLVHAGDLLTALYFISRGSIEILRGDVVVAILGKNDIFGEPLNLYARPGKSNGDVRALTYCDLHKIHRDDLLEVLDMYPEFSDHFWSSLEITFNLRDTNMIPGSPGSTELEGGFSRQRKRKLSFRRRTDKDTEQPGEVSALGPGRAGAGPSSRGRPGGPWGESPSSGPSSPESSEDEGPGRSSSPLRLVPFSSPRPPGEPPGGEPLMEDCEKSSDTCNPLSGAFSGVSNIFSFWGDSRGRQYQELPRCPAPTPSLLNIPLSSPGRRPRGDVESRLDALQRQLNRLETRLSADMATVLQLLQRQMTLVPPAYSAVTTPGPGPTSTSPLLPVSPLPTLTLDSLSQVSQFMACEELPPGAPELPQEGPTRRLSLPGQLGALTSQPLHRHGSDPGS

Point of comparison: Cc1ccc(NC(=O)Cn2ccnc2)cc1C, “hERG current change (%, negative = inhibition) at 1uM” value 8.73%. Against it:
- CN1CCN(c2nc(-c3ccc(C(C)(C)C)cc3)nc3ccccc23)CC1.Cl — lower, 2.04%
- COc1ccc2nc(NC(=O)C3CSC4(C)CCC(=O)N34)sc2c1 (stereo not shown) — lower, 3.14%
- C[C@@]12C(=O)Nc3cc(Cl)ccc3C(=O)N1[C@H]1c3cc(Br)ccc3OC[C@@H]1[C@@H]2c1ccccc1 — higher, 13.7%
- COc1ccc(NC(=O)Nc2nc(C)cc(C)n2)c(OC)c1 — higher, 10.1%
- CSc1ccccc1C(=O)C1CCCN(C(=O)CCN2CCCO2)C1 (stereo not shown) — lower, 5.56%
- COc1cc(/C=C/c2cccc[n+]2C)ccc1OCC(=O)Nc1cccc(Cl)c1.[I-] — lower, 4.57%
- O=C(C(=O)N1CCCC1CO)N1CCCC1CO (stereo not shown) — higher, 11.3%
- Cc1ccc(N2CC(C(=O)OCC(=O)c3ccc([N+](=O)[O-])cc3)CC2=O)cc1 (stereo not shown) — lower, -2.98%
- O=[N+]([O-])c1ccc(COP(=O)([O-])OCc2ccc([N+](=O)[O-])cc2)cc1.[Na+] — lower, 2.35%
- CCOC(=O)C(NCCc1ccccc1F)(NC(=O)CC)C(F)(F)F (stereo not shown) — lower, 4.35%
- CCN(CC)CCCNc1nnc(C)c(=O)[nH]1 — lower, 6.17%
- COc1ccc(Cl)cc1NC(=O)CCc1nnc2ccc(N3CCN(C)CC3)nn12 — higher, 10.2%
- O=C(O)c1ccc(NCc2cccs2)cc1 — higher, 11.3%
- O=C(O)CCC(=O)Nc1cccc(C(=O)Nc2ccc(Br)cc2)c1 — higher, 11.9%
- COc1ccc(CN2CCc3ccccc3C2)c(OC)c1 — lower, -6.81%
- O=C(NCC(c1cccs1)N1CCOCC1)c1cn(-c2ccccc2)nc1-c1ccc(Cl)cc1 (stereo not shown) — lower, 5.28%
- CCOC(=O)N1CCN(CCC(=O)Nc2ccc(OC)cc2OC)CC1 — lower, 3.55%
- Cc1ccccc1C(=O)NCCCNC(=O)c1ccco1 — higher, 16.8%
- COc1ccc(NC(=O)C2CCCN(S(=O)(=O)c3cccc4nonc34)C2)cc1 (stereo not shown) — higher, 32.8%
- CC(C)C(=O)Nc1nnc(Sc2ccc(N(C)C)cc2)s1 — higher, 12.1%
- COc1cc(OC)c(OC)cc1NC(=O)CC1COc2ccccc2O1 (stereo not shown) — higher, 14.8%
- O=C(CCCN1C(=O)c2ccccc2C1=O)NCc1ccc(F)cc1 — lower, 4.89%
- CCn1c(SCC(=O)Nc2nccs2)nnc1-c1ccco1 — higher, 11.3%
- CCc1c(C)sc(NC(=O)C2CCCO2)c1C#N (stereo not shown) — lower, 2.69%
- COc1ccc(C[C@H](N)C(=O)N[C@H]2[C@@H](O)[C@H](n3cnc4c(N(C)C)ncnc43)O[C@@H]2CO)cc1.Cl — lower, 0.716%
- CCCCOCCCNS(=O)(=O)Cc1ccccc1 — lower, 3.6%
- CC(=O)Nc1nc2c(C)cc(NC(=O)C3CCCCC3)cc2s1 — lower, 8.2%
- O=C(c1cc2cc(Cl)ccc2[nH]1)N1CCN(C(=O)c2ccco2)CC1 — lower, 1.45%
- CC1=NN(c2ccccc2)C(=O)/C1=C/c1c(O)n(-c2ccc(F)c(Cl)c2)[nH]c1=O — lower, 7.59%
- COc1ccccc1CCN=C(N)NS(=O)(=O)c1ccc(C)c(C)c1 — higher, 17.6%
- O=[N+]([O-])c1cc(C(F)(F)F)ccc1N1CCN(S(=O)(=O)c2ccc3ccccc3c2)CC1 — higher, 10.9%
- CC1CCCN(CCCNC(=O)C2CCCN(c3ncnc4c3nc3n4CCCCC3)C2)C1 (stereo not shown) — lower, 7.17%
- O=C(Oc1ccc(C(=S)N2CCOCC2)cc1)c1ccccc1 — higher, 28.6%
- CCCn1nc(NC(=O)C2CCCO2)c2cc3cccc(C)c3nc21 (stereo not shown) — higher, 10.7%
- O=C1NC(=O)N(c2ccc3c(c2)OCO3)C(=O)/C1=C\c1ccc(N2CCCCC2)o1 — higher, 12.4%
- Clc1ccccc1-c1nn2c(COc3ccccc3)nnc2s1 — lower, 0.0671%
- COc1ccc(NS(=O)(=O)c2cc(NC(=O)C3CCCO3)ccc2N2CCCCC2)cc1 (stereo not shown) — higher, 9.85%
- O=S(=O)(Nc1ccccn1)c1ccc(Cl)cc1 — lower, 1.52%
- CCc1cccc(CC)c1NC(=O)CN1C2CCCC1CC(NC(=O)Nc1cccc(OC)c1)C2 (stereo not shown) — higher, 9.12%
- Cn1c(SCCOc2cccc(Cl)c2)nnc1-c1ccncc1 — lower, -22.7%
- Cc1cc(C(=O)Nc2ccncc2)c2ccccc2n1 — higher, 14.8%
- O=C(Nc1ccc(N2C(=O)C3C4C=CC(C4)C3C2=O)cc1)Nc1cccnc1 (stereo not shown) — lower, 8.09%
- COc1ccc(N2CCN(C(c3cc(OC)ccc3OC)c3nnnn3CC3CCCO3)CC2)cc1.Cl (stereo not shown) — lower, 4.77%
- C/C(=N\NC(=O)c1cc(Br)ccc1O)c1cccc(NC(=O)c2ccccc2F)c1 — higher, 17.3%
- COc1cc(C)c(CN2CCN(C(C)C(=O)NC(C)c3ccccc3)CC2)cc1OC (stereo not shown) — lower, 7.88%
- S=c1[nH]nc(-c2cc(-c3ccccc3)n[nH]2)n1/N=C/C=C/c1ccccc1 — higher, 15.4%
- COC(=O)CN1C(=S)N(c2ccc(F)cc2)C(=O)C1CC(=O)Nc1ccccc1 (stereo not shown) — lower, 6.16%
- COc1cccc(C2CC(c3ccccc3)=NN2S(=O)(=O)c2ccc(C)cc2)c1OC (stereo not shown) — lower, 8.6%
- O=C(CN1CCC(n2nnc3cc(C(F)(F)F)ccc32)CC1)Nc1ccc2c(c1)OCCO2 — lower, -0.172%
- CCC1(C)Cc2c(sc3nc(SC)nc(N)c23)CO1 (stereo not shown) — higher, 8.9%
- CCOC(=O)C1=C(C)N(C)C(=S)N(C)C1c1ccc(OC)cc1 (stereo not shown) — lower, 8.17%
- COc1ccc(C(=O)OCc2ccccc2F)cc1S(=O)(=O)N1CCCC1 — lower, 6.72%
- CC(C)(C)OC(=O)NCc1ccc(CNC(=O)c2nc[nH]c2C(=O)N2CCc3ccccc3C2)cc1 — lower, 4.61%
- CCOc1cnn(-c2cc(Oc3ccc(C)cc3)ncn2)c(=O)c1Cl — lower, 3.88%
